The other results are listed elsewhere or left out.
B1: PhoQ; a variant is named by its letters at X, in order, P23837 (parent)
chain: MKKLLRLFFPLSLRVRFLLATAAVVLVLSLAYGMVALIGYSVSFDKTTFRLLRGESNLFYTLAKWENNKLHVELPENIDKQSPTMTLIYDENGQLLWAQRDVPWLMKMIQPDWLKSNGFHEIEADVNDTSLLLSGDHSIQQQLQEVREDDDDAEMTHSVAVNVYPATSRMPKLTIVVVDTIPVELKSSYMVWSWFIYVLSANLLLVIPLLWVAAWWSLRPIEALAKEVRELEEHNRELLNPATTRELTSLVRNLNRLLKSERERYDKYRTTLTDLTHSLKTPLXXLQXXLRSLRSEKMSVSDAEPVMLEQISRISQQIGYYLHRASMRGGTLLSRELHPVAPLLDNLTSALNKVYQRKGVNISLDISPEISFVGEQNDFVEVMGNVLDNACKYCLEFVEISARQTDEHLYIVVEDDGPGIPLSKREVIFDRGQRVDTLRPGQGVGLAVAREITEQYEGKIVAGESMLGGARMEVIFGRQHSAPKDE

Variants of: B1
Assay: enrichment ratio after two sorts for PhoP signalling (ratio (wild type AVST 3.29)); higher = more functional
Details: with PhoP (E. coli)

Row | Variant | enrichment ratio
1 | SHGR | 0.478
2 | GTYW | ≤ 0.25
3 | PSIM | ≤ 0.25
4 | DRIR | ≤ 0.25
5 | KCFR | ≤ 0.25
6 | WIVV | ≤ 0.25
7 | FMAE | ≤ 0.25
8 | PQIQ | ≤ 0.25
9 | GKPH | ≤ 0.25
10 | GQYW | ≤ 0.25
11 | GWWA | ≤ 0.25
12 | WLEW | ≤ 0.25
13 | YPSC | ≤ 0.25
14 | GRKQ | ≤ 0.25
15 | RYLV | ≤ 0.25
16 | DPRY | ≤ 0.25
17 | KHCR | ≤ 0.25
18 | QKKL | ≤ 0.25
19 | WDVW | ≤ 0.25
20 | FRYQ | ≤ 0.25
21 | PYDY | ≤ 0.25
22 | INGD | ≤ 0.25
23 | QTGW | ≤ 0.25
24 | YARA | ≤ 0.25

Row | Variant | enrichment ratio
25 | FPYR | ≤ 0.25
26 | IKGK | ≤ 0.25
27 | SAMN | 9.23
28 | PVPM | ≤ 0.25
29 | LVVR | ≤ 0.25
30 | GDII | 2.61
31 | FDWD | ≤ 0.25
32 | RCAI | ≤ 0.25
33 | IPFS | ≤ 0.25
34 | SIVL | 0.788
35 | DSLI | ≤ 0.25
36 | IVPC | 0.733
37 | NSWF | ≤ 0.25
38 | QFNS | ≤ 0.25
39 | LREG | ≤ 0.25
40 | SIRF | ≤ 0.25
41 | VYLI | ≤ 0.25
42 | PVCM | ≤ 0.25
43 | LFNG | ≤ 0.25
44 | ACLV | 16
45 | DVFI | ≤ 0.25
46 | QMGH | 7.54
47 | QYVS | ≤ 0.25
48 | FQGQ | ≤ 0.25

Row | Variant | enrichment ratio
49 | GALW | ≤ 0.25
50 | LPRF | ≤ 0.25
51 | IHMK | ≤ 0.25
52 | DVYR | ≤ 0.25
53 | RRQN | ≤ 0.25
54 | AIPP | ≤ 0.25
55 | QDSI | ≤ 0.25
56 | WPRM | ≤ 0.25
57 | NFFA | ≤ 0.25
58 | PHLN | ≤ 0.25
59 | IKVK | ≤ 0.25
60 | TAHF | 10.3
61 | DYKQ | ≤ 0.25
62 | MWKW | ≤ 0.25
63 | DPNI | ≤ 0.25
64 | HADV | ≤ 0.25
65 | VHGH | ≤ 0.25
66 | IWII | ≤ 0.25
67 | NPRW | ≤ 0.25
68 | GWNI | ≤ 0.25
69 | ECDY | ≤ 0.25
70 | EDQY | ≤ 0.25
71 | GGVR | ≤ 0.25
72 | FWKC | ≤ 0.25

Row | Variant | enrichment ratio
73 | HKQN | ≤ 0.25
74 | GLIY | ≤ 0.25
75 | NYYM | ≤ 0.25
76 | LFPD | ≤ 0.25
77 | IWEL | ≤ 0.25
78 | TQDK | ≤ 0.25
79 | HKYM | ≤ 0.25
80 | VCHH | ≤ 0.25
81 | MRRD | ≤ 0.25
82 | TSNR | ≤ 0.25
83 | MTQI | ≤ 0.25
84 | ALCP | ≤ 0.25
85 | WICW | ≤ 0.25
86 | VYVP | ≤ 0.25
87 | RHFI | ≤ 0.25
88 | YGFM | ≤ 0.25
89 | PKPS | ≤ 0.25
90 | EAYM | ≤ 0.25
91 | PNRA | ≤ 0.25
92 | PLVE | ≤ 0.25
93 | HHNY | ≤ 0.25
94 | DNDG | ≤ 0.25
95 | VDEI | ≤ 0.25
96 | VGYF | ≤ 0.25

Row | Variant | enrichment ratio
97 | SCKG | ≤ 0.25
98 | MESC | 10.2
99 | NLRM | ≤ 0.25
100 | MWTH | ≤ 0.25
101 | IKNL | ≤ 0.25
102 | IESK | ≤ 0.25
103 | TQNW | ≤ 0.25
104 | MLFL | 0.265
105 | EHLM | ≤ 0.25
106 | WFIS | ≤ 0.25
107 | FGCL | 9.53
108 | IVRL | ≤ 0.25
109 | FSGK | ≤ 0.25
110 | SFMM | 0.454
111 | EAKK | ≤ 0.25
112 | VNHM | ≤ 0.25
113 | KSAH | ≤ 0.25
114 | EIWM | ≤ 0.25
115 | RFLT | ≤ 0.25
116 | VPAL | ≤ 0.25
117 | MYFQ | ≤ 0.25
118 | SGYF | 1.57
119 | WRST | ≤ 0.25
120 | ECSN | ≤ 0.25

Row | Variant | enrichment ratio
121 | DWAM | ≤ 0.25
122 | RMGW | ≤ 0.25
123 | QMMS | ≤ 0.25
124 | HGRW | ≤ 0.25
125 | APWR | ≤ 0.25
126 | DNYS | ≤ 0.25
127 | KMAF | ≤ 0.25
128 | FSRE | ≤ 0.25
129 | GRVC | ≤ 0.25
130 | NMRN | ≤ 0.25
131 | YMPY | ≤ 0.25
132 | FWQW | ≤ 0.25
133 | QMYE | ≤ 0.25
134 | YHLQ | ≤ 0.25
135 | VMDK | ≤ 0.25
136 | LTRA | ≤ 0.25
137 | KMSG | ≤ 0.25
138 | IKKY | ≤ 0.25
139 | TMCK | 3.91
140 | QFGN | ≤ 0.25
141 | CCAS | ≤ 0.25
142 | TGDH | ≤ 0.25
143 | PFKL | ≤ 0.25
144 | EGHD | ≤ 0.25

Row | Variant | enrichment ratio
145 | LRVL | ≤ 0.25
146 | HKEL | ≤ 0.25
147 | PQGI | ≤ 0.25
148 | VWNH | ≤ 0.25
149 | WWER | ≤ 0.25
150 | LLLP | ≤ 0.25
151 | SIMW | 2.09
152 | MHDK | ≤ 0.25
153 | TGPW | ≤ 0.25
154 | FYFC | ≤ 0.25
155 | DWML | ≤ 0.25
156 | HMIW | ≤ 0.25
157 | LWPP | ≤ 0.25
158 | ERHY | ≤ 0.25
159 | AYSI | ≤ 0.25
160 | YNIP | ≤ 0.25
161 | ITTL | 0.464
162 | DHVG | ≤ 0.25
163 | RINV | ≤ 0.25
164 | TQST | 5.28
165 | IRSS | ≤ 0.25
166 | ELMR | ≤ 0.25
167 | YGGH | ≤ 0.25
168 | EQAL | ≤ 0.25

Row | Variant | enrichment ratio
169 | MWSV | ≤ 0.25
170 | WINA | ≤ 0.25
171 | GRYK | ≤ 0.25
172 | QFHR | ≤ 0.25
173 | VQTW | ≤ 0.25
174 | VRSD | ≤ 0.25
175 | FFQK | ≤ 0.25
176 | YYLI | ≤ 0.25
177 | SGWM | 9.28
178 | ITHD | ≤ 0.25
179 | DVHD | ≤ 0.25
180 | QYLR | ≤ 0.25
181 | KAKH | 6.08
182 | PRYC | ≤ 0.25
183 | LTLR | ≤ 0.25
184 | VYQD | ≤ 0.25
185 | LRIH | ≤ 0.25
186 | VWHE | ≤ 0.25
187 | TLWT | ≤ 0.25
188 | NARA | ≤ 0.25
189 | TACT | 8.24
190 | YIES | ≤ 0.25
191 | MQSF | ≤ 0.25
192 | GDEP | ≤ 0.25

Row | Variant | enrichment ratio
193 | GNYM | ≤ 0.25
194 | YSPY | ≤ 0.25
195 | RMSE | ≤ 0.25
196 | NLGN | ≤ 0.25
197 | QRMA | ≤ 0.25
198 | YWND | ≤ 0.25
199 | DMIM | ≤ 0.25
200 | EYKH | ≤ 0.25
201 | VTYE | ≤ 0.25
202 | AKQS | ≤ 0.25
203 | IRQV | ≤ 0.25
204 | MTWD | ≤ 0.25
205 | QQMD | ≤ 0.25
206 | SYYR | ≤ 0.25
207 | WRYE | ≤ 0.25
208 | PFGY | ≤ 0.25
209 | SIAI | 11.6
210 | YVYH | ≤ 0.25
211 | RALF | ≤ 0.25
212 | IEAR | ≤ 0.25
213 | LGYW | ≤ 0.25
214 | GKFS | ≤ 0.25
215 | KTCD | ≤ 0.25
216 | FKLA | ≤ 0.25

Row | Variant | enrichment ratio
217 | ETSD | ≤ 0.25
218 | AKRN | ≤ 0.25
219 | DGGY | ≤ 0.25
220 | DLHC | ≤ 0.25
221 | EASR | ≤ 0.25
222 | HLHQ | ≤ 0.25
223 | PLGY | ≤ 0.25
224 | QHEH | ≤ 0.25
225 | PGRR | ≤ 0.25
226 | ITVA | ≤ 0.25
227 | MSHF | 2.07
228 | DMQY | ≤ 0.25
229 | YKEK | ≤ 0.25
230 | HRAL | ≤ 0.25
231 | PKIS | ≤ 0.25
232 | NSNN | ≤ 0.25
233 | LHMP | ≤ 0.25
234 | TIRA | ≤ 0.25
235 | SAIW | ≤ 0.25
236 | AVCE | ≤ 0.25
237 | NASR | ≤ 0.25
238 | WMSI | ≤ 0.25
239 | QIGR | ≤ 0.25
240 | DRYW | ≤ 0.25

Row | Variant | enrichment ratio
241 | NANF | ≤ 0.25
242 | ELKY | ≤ 0.25
243 | LGLM | 6.93
244 | LAWC | ≤ 0.25
245 | IAFW | ≤ 0.25
246 | WRDC | ≤ 0.25
247 | LTCQ | ≤ 0.25
248 | GLIT | ≤ 0.25
249 | ECWR | ≤ 0.25
250 | CWVK | ≤ 0.25
251 | ATPS | ≤ 0.25
252 | VIIH | ≤ 0.25
253 | FERS | ≤ 0.25
254 | NQRG | ≤ 0.25
255 | FPRV | ≤ 0.25
256 | DDAS | ≤ 0.25
257 | AWTE | ≤ 0.25
258 | NCAW | ≤ 0.25
259 | QMNH | ≤ 0.25
260 | QRTD | ≤ 0.25
261 | PDKI | ≤ 0.25
262 | AYGY | ≤ 0.25
263 | EEIS | ≤ 0.25
264 | AYLS | ≤ 0.25

Row | Variant | enrichment ratio
265 | RPNS | ≤ 0.25
266 | FCRG | ≤ 0.25
267 | LVYA | ≤ 0.25
268 | LRWC | ≤ 0.25
269 | TCNY | 9.63
270 | DNAA | ≤ 0.25
271 | DYHR | ≤ 0.25
272 | IAIA | ≤ 0.25
273 | IMYD | ≤ 0.25
274 | FNFM | ≤ 0.25
275 | KHIW | ≤ 0.25
276 | QCYY | ≤ 0.25
277 | ATNT | ≤ 0.25
278 | DKFH | ≤ 0.25
279 | FIWK | ≤ 0.25
280 | GNMS | 9.1
281 | VFVE | ≤ 0.25
282 | KTSY | ≤ 0.25
283 | KHWL | ≤ 0.25
284 | MVWV | ≤ 0.25
285 | FTLE | 5.91
286 | SSCK | 4.35
287 | MCMC | ≤ 0.25
288 | RANK | ≤ 0.25

Row | Variant | enrichment ratio
289 | FCIT | ≤ 0.25
290 | AGPG | ≤ 0.25
291 | KMIV | ≤ 0.25
292 | YEWM | ≤ 0.25
293 | QVRQ | ≤ 0.25
294 | TTPS | ≤ 0.25
295 | HQSC | ≤ 0.25
296 | FQDW | ≤ 0.25
297 | MYLR | ≤ 0.25
298 | MLCV | ≤ 0.25
299 | RPWG | ≤ 0.25
300 | AYQD | ≤ 0.25
301 | YAMW | ≤ 0.25
302 | TSSM | 24.4
303 | RPDD | ≤ 0.25
304 | SVVR | 2.5
305 | WMAW | ≤ 0.25
306 | GDNG | ≤ 0.25

Reference: a collection of fitness landscapes (doi:10.1126/science.1257360)
